Values joined by “and” are separate entries in the source; they are usually repeats but may differ in a detail not shown here. Equal entries are not always repeated.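 Cultured in 96-well plates, cells were exposed to test compound for 48 hours across five concentrations. GI50 = concentration required for 50% inhibition of growth. Definition used: TGI = concentration required for complete inhibition of growth.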
Test system: NCI-H322M lung
Assay: growth of human tumour cells (NCI), 48 h

Row | Structure (SMILES) | TGI | GI50
1 | CCCCCC(O)(CCCCC)CCCCCCCCC1=C(O)c2ccccc2C(=O)C1=O | 79.7 µM | 
2 | COc1ccc([I+]c2ccccc2)cc1 | > 100 µM | 8.19 µM
3 | COc1cc(C=O)c(-c2cc3c(cc2C2(C)OCCS2)OCO3)c(OC)c1OC (centres undefined) | > 136 µM | 
4 | COP(=O)(OC)c1ccc(NCc2cc(O)ccc2O)cc1 | > 100 µM | 
5 | O=C(NC12CC3CC(CC(C3)C1)C2)C(=O)c1c[nH]c2ccc([N+](=O)[O-])cc12 | > 100 µM | 
6 | COc1ccc(CCNC(=O)CCCCCO)cc1OC | > 100 µM | 
7 | O=C(CCc1ccc(O)c(O)c1)NCCc1ccc(O)c(O)c1 | > 100 µM | 
8 | COc1ccc(OC)c(NCC#N)c1 | > 100 µM | 
9 | CCCCCCCCCCCCCCCCCCOc1ccc(/C=C/C2=[N+](CCCl)CCO2)cc1 | > 100 µM | 
10 | COC(=O)C(Cc1ccccc1)NC(=O)c1ccc(CNC(=S)NCc2cccc(CNC(=S)NCc3ccccc3)c2)cc1 (centres undefined) | > 62.5 µM | 
11 | CCNc1cc2c3c(c1)CCCN3CCC2 | 33.7 µM | 
12 | CC(C)[NH-].CC(C)[NH-].O.O.[Cl][Pt+2][Cl] | 145 µM | 32.6 µM
13 | COc1cc2c(cc1OC)C(CC1(O)CCCCC1)N(S(=O)(=O)c1ccc(C)cc1)CC2 (centres undefined) | > 10 µM | > 10 µM
14 | COc1ccc2oc(=Nc3ccc(F)cc3)c(C(N)=O)cc2c1 | > 100 µM | 
15 | Cc1cc2c(c(C(=O)NCCC(=O)N[C@@H](C)C(=O)OCc3ccccc3)c1)Oc1c(cc(C)cc1C(=O)NCCC(=O)N[C@@H](C)C(=O)OCc1ccccc1)S2 | > 100 µM | 
16 | CCOC(=O)NC1=C(N2CC2)C(=O)C(NC(=O)OCC)=C(N2CC2)C1=O | 25 µM and 49 µM | 21.8 µM
17 | NC(=O)CCC(NC(=O)c1cccc2c(=O)c3ccccc3[nH]c12)C(=O)O (centres undefined) | > 100 µM | 
18 | COc1ccc(/C=N/n2cnc3c(c2=O)S/C(=C2/SC(=S)N(c4ccc(C)cc4)C2=O)N3c2ccccc2)cc1 | > 100 µM | 
19 | CCC/C(Cl)=N\OC(=O)Nc1ccc(F)c([N+](=O)[O-])c1 | > 100 µM | 
20 | CC(C)(O)[C@@H]1CC[C@@]2(C)CCC[C@H](O)[C@H]2C1 | > 100 µM | 
21 | Cn1c(/C=C(\C#N)c2cccc(C(F)(F)F)c2)nc2c(N3CCOCC3)nc(Cl)nc21 | 3.41 µM | 1.61 µM
22 | NC(CC(=O)Nc1ccc(Cl)cc1)=Nc1ccccc1 | > 100 µM | 
23 | CCCCOC(=O)c1ccc(NC(=O)CCl)cc1 | 24 µM | 11.6 µM
24 | O=C(NCCCCCCNC(=O)n1cc(F)c(=O)[nH]c1=O)NCCCOCCOCCOCCOCCOCCOCCOCCOCCOCCOCCOCCOCCOCCOCCOCCOCCOCCOCCOCCOCCOCCCNC(=O)C(O)C(O)C(OC1OC(CO)C(O)C(O)C1O)C(O)CO (centres undefined) | > 100 µM | 

Row | Structure (SMILES) | TGI | GI50
25 | Fc1cccc(CSc2ncnc3c2ncn3C2CCCS2)c1 (centres undefined) | > 100 µM | 
26 | NC(=S)N/N=C/c1ccc(O)cn1 | 434 µM and 835 µM | 28.5 µM and 7.03 µM
27 | CCOC(=O)C1=NN(c2ccc(Cl)cc2)C2=CC(C)=NN(C)C(=S)N21 | > 100 µM | 
28 | O=C1NC(=O)C(c2ccc(Cl)cc2)=C1Nc1ccc(Cl)c(C(=O)O)c1 | > 25 µM | > 25 µM
29 | CCCCCCCCC(O)C#CC(N)=O (centres undefined) | 28 µM | 
30 | CSc1nc(SC)c2c(C(N)=S)[nH]nc2n1 | > 100 µM | 
31 | COc1ccc(/C=N\NC(=O)Nc2cccc3ccccc23)cc1 | > 100 µM | 
32 | COc1nc2ccc(CNc3ccc(C(=O)O)cc3)cc2nc1OC | > 10 µM | 
33 | CSC1(SC)N2Cc3ccccc3N=C2C1(c1ccccc1)c1ccccc1 | > 100 µM | 
34 | CCO/C=C1\N=C(C(Cl)c2ccccc2)OC1=O (centres undefined) | > 100 µM | 
35 | N#Cc1ccc(C2C3=C(CCCC3=O)OC3=C2C(=O)c2ccccc2C3=O)cc1 (centres undefined) | 27.2 µM | 12.1 µM
36 | CCOc1ccccc1N1C(=O)C(=O)C(c2nc3ccccc3o2)/C(=N\N)C1=O (centres undefined) | > 100 µM | 
37 | CC(O)c1cc2c(s1)C(=O)c1scc(C(C)O)c1C2=O (centres undefined) | 3.58 µM | 
38 | NNC(=O)CCC(NS(=O)(=O)c1ccc(Cl)cc1)C(=O)NN (centres undefined) | > 100 µM | 
39 | CC1C2CC(CC2N)C1(C)C (centres undefined) | > 100 µM | 
40 | COc1cc2c(cc1OC(=O)c1cc3ccccc3[nH]1)N=C[C@@H]1CCCN1C2=O | 6.73 µM | 
41 | O=C(O)c1ccc([S-])cc1.[Au+].c1ccc(CN2[CH-]N(Cc3ccccc3)C(c3ccccc3)=C2c2ccccc2)cc1 | 1.72 µM | 0.393 µM
42 | C/C(CC(=O)Nc1ccc(Cl)cc1)=N\NC(=O)C[n+]1ccccc1 | > 100 µM | 
43 | COc1cc(/C=c2/c3ccccc3n3c2cc(-c2ccccc2)[n+]3C)cc(OC)c1OC | > 49 µM | 
44 | COc1c2c(c(CC=C(C)C)c3oc(=O)c(-c4ccc(O)cc4)c(O)c13)OC(C)(C)C=C2 | > 100 µM | 
45 | COC(=O)[C@@]1(O)CC(C)C=C1C=O (some centres undefined) | > 100 µM | 
46 | CN1CCC(C(=O)Nc2n[nH]c3nc(-c4ccc(O)cc4)c(Br)cc23)CC1 | > 25 µM | 6.04 µM and 8.93 µM
47 | C[C@@H](NC(=O)[C@@H](CC(=O)N1CCC(N2CCCCC2)CC1)N1C(=O)[C@@H](N2C(=O)OC[C@@H]2c2ccccc2)[C@H]1/C=C/c1cccc(Cl)c1)c1ccccc1 | 15.7 µM | 3.42 µM
48 | Cc1ccc(C(=O)/C(=C\c2ccc([N+](=O)[O-])cc2)S(=O)Cc2ccc(F)cc2)cc1 (centres undefined) | 4.44 µM | 1.78 µM

Row | Structure (SMILES) | TGI | GI50
49 | CC(=O)Nc1ccc(-c2nnc(SCC(=O)Nc3cccc([N+](=O)[O-])c3)o2)cc1 | 78.7 µM | 
50 | C=CCCC(On1c(-c2ccc(Cl)cc2)csc1=S)c1ccccc1 (centres undefined) | > 100 µM | 
51 | Cc1cc(C)c2c(=N)c3ccccc3n(CCCCCCn3c4ccccc4c(=N)c4c(C)cc(C)nc43)c2n1 | 3.26 µM | 
52 | O=C1C2=C(CCCCC2)C2CCCCC12O (centres undefined) | > 100 µM | 
53 | N/C(=N\N=C\c1cc2c(cc1Cl)OCO2)NO | > 100 µM | 
54 | CC1(C)N=C(N)N=C(N)N1c1ccc(CCc2ccc(Cl)cc2S(=O)(=O)F)c(Cl)c1 | > 100 µM | 13.5 µM
55 | COc1ccc(N=N/C(=N/NC(=O)c2cc(Cl)ccc2C(=O)c2ccccc2)c2ccc(N(CCC#N)CCC#N)cc2C)cc1 | > 100 µM | 
56 | C[C@]1(C(=O)O)N[C@H](C(=O)O)CS1 | > 1000 µM | > 1000 µM
57 | O=C(O)c1ccc2c3c(ncnc13)-c1ccccc1C2=O | 5.56 µM | 2.25 µM
58 | C/C(=N\NC(=O)c1cccnc1)c1cccc(/C(C)=N/NC(=O)c2cccnc2)n1.CC(=O)[O-].CC(=O)[O-].[Zn+2] | > 100 µM | 
59 | Nc1nc2ccc3[nH]ncc3c2c2c1CCCC2 | 6.77 µM | 1.6 µM
60 | CCOC(=O)C1C[C@H]2CO[C@H](c3ccccc3)N2C1=O (some centres undefined) | > 100 µM | 
61 | CC(=O)C1COC(O)C1C (centres undefined) | > 100 µM | 
62 | Cc1[nH]c(=O)nc2nc3ccc(Cl)cc3c(NC(C)(CO)CO)c12 | > 100 µM | 
63 | CC1=C(C(=O)Nc2ccc([N+](=O)[O-])cc2)C(c2ccccc2O)C(C(=O)Nc2ccc([N+](=O)[O-])cc2)=C(C)N1 | 85.1 µM | 
64 | Cc1ccc(C(=O)N2c3ccccc3N(C)n3cccc3C2CC(=O)O)cc1 (centres undefined) | > 100 µM | 
65 | CC1(C)O[C@H]2OC(CO)C(OS(C)(=O)=O)[C@H]2O1 (some centres undefined) | > 100 µM | 
66 | COc1ccc2nc(NCN3C(=O)c4ccccc4C3=O)sc2c1 | > 100 µM | 
67 | Nc1nc(NC2C=C(CO)C(O)C2O)c([N+](=O)[O-])c(=O)[nH]1 (centres undefined) | > 100 µM | 
68 | COc1ccc(NCc2cnc3nc(N)nc(N)c3c2C)cc1 | > 100 µM | 
69 | O=[P+](O)c1cc2ccccc2c2ccccc12 | > 100 µM | 
70 | COc1cc(O)c2c(=O)c(OC)c(-c3ccc4c(c3)OCO4)oc2c1OC | > 50 µM | 
71 | CCCCNC(=S)c1ccc(OC(=O)Nc2ccc(Cl)cc2)cc1 | > 100 µM | 
72 | COc1ccc(S(=O)(=O)Nc2ccc(-c3csc(N4C(=O)/C(=C/c5ccccc5)N=C4c4ccccc4)n3)cc2)cc1Cl | > 100 µM | 
